What was measured:
[1] = biological target: PSMGFR C-10 peptide (SEQ ID NO: 3) (Homo sapiens, UniProt P15941); test: ELISA binding to PSMGFR C-10 peptide
Excerpt: Cancer selective anti-MUC1* antibodies bind to a membrane proximal conformational epitope within the MUC1* extracellular domain, as described in WO 2020/146902.
The 3C2B1 epitope was mapped more precisely with additional PSMGFR peptide variants (FIGS. 2A, 2B).

MUC1* = test: Western blot recognition of linearized epitope; assay type: binding
Experimental: The binding strength of anti-MUC1* antibodies is evaluated by determining their ability to displace NMF7-AB (a MUC1* ligand) from MUC1* immobilized on the plastic surface of a 96-well plate. Because the cancer-selective MUC1* epitope is a conformational epitope, cancer-selective anti-MUC1* antibodies should not recognize MUC1* on a western blot, where the epitope is linearized. MMP9 is a protease that cleaves MUC1 to generate MUC1*. MMP9 is a predictor of poor prognosis for breast cancers. Some cancer-selective anti-MUC1* antibodies, particularly breast cancer selective antibodies, should bind to cells engineered to express MUC1 after they are contacted with MMP9 to convert the MUC1 to MUC1*.

PSMGFR C-10 peptide (SEQ ID NO: 3), sequence (P15941 1110-1144 limits assumed): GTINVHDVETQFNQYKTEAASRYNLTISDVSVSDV

B1: 25E6: anti-MUC1* monoclonal antibody that bound to the PSMGFR peptide (antibody, V domains shown)
VH: EVQLVESGGGLVKPGGSLRLSCAASGFTFSSYGMSWVRQAPGKGLEWVATISNGGRHTFYPDSVKGRFTISRDNAKNTLYLQMNSLRAEDTAVYLCVRQTGTEGWFAYWGQGTLVTVSS
VL: DVVMTQTPLSLSVTPGQPASISCKSSQSLLDSDGKTYLNWLLQKPGQSPKRLIYLVSKLDSGVPDRFSGSGSGTDFTLKISRVEAEDVGVYYCWQGTHFPQTFGGGTKVEIK
- Does not bind C-10 [1]: 0
- Does not recognize a linear epitope (MUC1*): 0
